# In PMC9911399, “Two distinct binding modes provide the RNA-binding protein RbFox with extraordinary sequence specificity”:
# Substitutions are numbered along the chain they refer to; changes in the protein carry UniProt numbers. This is one part of the list.
# B1: GUGCAAC (DNA:RNA)
# RNA: GGGAGACCGGAAUUCAGAUUGUCCGUGCAACUUAAAUCCCGUCGUAGCCACCA
# DNA 1: CAATCTGAATTCCGGTCTCCC
# DNA 2: TGGTGGCTACGACGGGATT
# B2: CUAUGAG (DNA:RNA)
# RNA: B1 RNA with G25C, G27A, C28U, A29G, C31G
# DNA 1: CAATCTGAATTCCGGTCTCCC
# DNA 2: TGGTGGCTACGACGGGATT
# B3: AGGAGGA (DNA:RNA)
# RNA: B1 RNA with G25A, U26G, C28A, A29G, A30G, C31A
# DNA 1: CAATCTGAATTCCGGTCTCCC
# DNA 2: TGGTGGCTACGACGGGATT
# B4: GUACGUG (DNA:RNA)
# RNA: B1 RNA with G27A, A29G, A30U, C31G
# DNA 1: CAATCTGAATTCCGGTCTCCC
# DNA 2: TGGTGGCTACGACGGGATT
# B5: GCAUUGC (DNA:RNA)
# RNA: B1 RNA with U26C, G27A, C28U, A29U, A30G
# DNA 1: CAATCTGAATTCCGGTCTCCC
# DNA 2: TGGTGGCTACGACGGGATT
# B6: GUUGCCU (DNA:RNA)
# RNA: B1 RNA with G27U, C28G, A29C, A30C, C31U
# DNA 1: CAATCTGAATTCCGGTCTCCC
# DNA 2: TGGTGGCTACGACGGGATT
# B7: UUAGAUU (DNA:RNA)
# RNA: B1 RNA with G25U, G27A, C28G, A30U, C31U
# DNA 1: CAATCTGAATTCCGGTCTCCC
# DNA 2: TGGTGGCTACGACGGGATT
# B8: ACCGAGU (DNA:RNA)
# RNA: B1 RNA with G25A, U26C, G27C, C28G, A30G, C31U
# DNA 1: CAATCTGAATTCCGGTCTCCC
# DNA 2: TGGTGGCTACGACGGGATT
# B9: CCGUAAU (DNA:RNA)
# RNA: B1 RNA with G25C, U26C, C28U, C31U
# DNA 1: CAATCTGAATTCCGGTCTCCC
# DNA 2: TGGTGGCTACGACGGGATT
# B10: UCAAUGA (DNA:RNA)
# RNA: GGGAGACCGGAAUUCAGAUUGUCCUCAAUGAUUAAAUCCCGUCGUAGCCACCA
# DNA 1: CAATCTGAATTCCGGTCTCCC
# DNA 2: TGGTGGCTACGACGGGATT
# B11: CUGCGCC (DNA:RNA)
# RNA: B1 RNA with G25C, A29G, A30C
# DNA 1: CAATCTGAATTCCGGTCTCCC
# DNA 2: TGGTGGCTACGACGGGATT
# B12: GGACAUC (DNA:RNA)
# RNA: B1 RNA with U26G, G27A, A30U
# DNA 1: CAATCTGAATTCCGGTCTCCC
# DNA 2: TGGTGGCTACGACGGGATT
# B13: AGAACUU (DNA:RNA)
# RNA: B10 RNA with U25A, C26G, U29C, G30U, A31U
# DNA 1: CAATCTGAATTCCGGTCTCCC
# DNA 2: TGGTGGCTACGACGGGATT
# B14: CUAGGGA (DNA:RNA)
# RNA: B10 RNA with U25C, C26U, A28G, U29G
# DNA 1: CAATCTGAATTCCGGTCTCCC
# DNA 2: TGGTGGCTACGACGGGATT
# B15: AACUCCG (DNA:RNA)
# RNA: GGGAGACCGGAAUUCAGAUUGUCCAACUCCGUUAAAUCCCGUCGUAGCCACCA
# DNA 1: CAATCTGAATTCCGGTCTCCC
# DNA 2: TGGTGGCTACGACGGGATT
# B16: UCUAUGU (DNA:RNA)
# RNA: B10 RNA with A27U, A31U
# DNA 1: CAATCTGAATTCCGGTCTCCC
# DNA 2: TGGTGGCTACGACGGGATT
# B17: UGUCCUU (DNA:RNA)
# RNA: B15 RNA with A25U, A26G, C27U, U28C, C30U, G31U
# DNA 1: CAATCTGAATTCCGGTCTCCC
# DNA 2: TGGTGGCTACGACGGGATT
# B18: UACCCAA (DNA:RNA)
# RNA: B15 RNA with A25U, U28C, C30A, G31A
# DNA 1: CAATCTGAATTCCGGTCTCCC
# DNA 2: TGGTGGCTACGACGGGATT
# B19: UGUUACA (DNA:RNA)
# RNA: B15 RNA with A25U, A26G, C27U, C29A, G31A
# DNA 1: CAATCTGAATTCCGGTCTCCC
# DNA 2: TGGTGGCTACGACGGGATT
# B20: UAUGGUC (DNA:RNA)
# RNA: B15 RNA with A25U, C27U, U28G, C29G, C30U, G31C
# DNA 1: CAATCTGAATTCCGGTCTCCC
# DNA 2: TGGTGGCTACGACGGGATT
# B21: ACUGAAA (DNA:RNA)
# RNA: B1 RNA with G25A, U26C, G27U, C28G, C31A
# DNA 1: CAATCTGAATTCCGGTCTCCC
# DNA 2: TGGTGGCTACGACGGGATT
# B22: CACAGCC (DNA:RNA)
# RNA: B15 RNA with A25C, U28A, C29G, G31C
# DNA 1: CAATCTGAATTCCGGTCTCCC
# DNA 2: TGGTGGCTACGACGGGATT
# B23: GUCGCUC (DNA:RNA)
# RNA: B1 RNA with G27C, C28G, A29C, A30U
# DNA 1: CAATCTGAATTCCGGTCTCCC
# DNA 2: TGGTGGCTACGACGGGATT
# B24: CCGAUCG (DNA:RNA)
# RNA: B10 RNA with U25C, A27G, G30C, A31G
# DNA 1: CAATCTGAATTCCGGTCTCCC
# DNA 2: TGGTGGCTACGACGGGATT
# B25: CAGACCC (DNA:RNA)
# RNA: B15 RNA with A25C, C27G, U28A, G31C
# DNA 1: CAATCTGAATTCCGGTCTCCC
# DNA 2: TGGTGGCTACGACGGGATT
# B26: UGUUGAC (DNA:RNA)
# RNA: B1 RNA with G25U, U26G, G27U, C28U, A29G
# DNA 1: CAATCTGAATTCCGGTCTCCC
# DNA 2: TGGTGGCTACGACGGGATT
# B27: GAGAUCC (DNA:RNA)
# RNA: B1 RNA with U26A, C28A, A29U, A30C
# DNA 1: CAATCTGAATTCCGGTCTCCC
# DNA 2: TGGTGGCTACGACGGGATT
# B28: AUAUGAG (DNA:RNA)
# RNA: B15 RNA with A26U, C27A, C29G, C30A
# DNA 1: CAATCTGAATTCCGGTCTCCC
# DNA 2: TGGTGGCTACGACGGGATT
# B29: AACAACG (DNA:RNA)
# RNA: B15 RNA with U28A, C29A
# DNA 1: CAATCTGAATTCCGGTCTCCC
# DNA 2: TGGTGGCTACGACGGGATT
# B30: AAGGCAC (DNA:RNA)
# RNA: B15 RNA with C27G, U28G, C30A, G31C
# DNA 1: CAATCTGAATTCCGGTCTCCC
# DNA 2: TGGTGGCTACGACGGGATT
# B31: AACCUAC (DNA:RNA)
# RNA: B15 RNA with U28C, C29U, C30A, G31C
# DNA 1: CAATCTGAATTCCGGTCTCCC
# DNA 2: TGGTGGCTACGACGGGATT
# Target: T1, RBFOX1 RRM (Homo sapiens, UniProt Q9NWB1 109-208)
# T1 sequence: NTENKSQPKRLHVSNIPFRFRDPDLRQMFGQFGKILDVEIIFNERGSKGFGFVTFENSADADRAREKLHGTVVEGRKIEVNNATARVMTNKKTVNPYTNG
# Assay: EMSA; HiTS-Eq, 1 nM pool, 10 min; buffer printed only for the single-RNA assays: 10 mM Tris pH 7.5, 150 mM NaCl, 3.4 mM EDTA, 0.001% NP-40, 30 C
# Conditions: tags: His6 N-terminal (pET28a); label: 5' 32P
# Outline: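 Purified RbFox RRM (wild type or mutant) was equilibrated for 10 min in 50 µL with 1 nM of a 5′-radiolabelled pool of RNA with 7 randomized nucleotides, its flanks annealed to DNA oligonucleotides, across increasing protein concentrations. Free RNA was separated by 8% native PAGE, excised, reverse-transcribed, PCR-barcoded and sequenced on an Illumina HiSeq 2500. Relative association constants came from read-count changes of each variant against the control reaction, normalised to the cognate motif.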
row,Binder,binding signal
1,B1,0.0174 KA relative to UGCAUGU
2,B2,0.0141 KA relative to UGCAUGU
3,B3,0.009 KA relative to UGCAUGU
4,B4,0.0162 KA relative to UGCAUGU
5,B5,0.0184 KA relative to UGCAUGU
6,B6,0.0199 KA relative to UGCAUGU
7,B7,0.0079 KA relative to UGCAUGU
8,B8,0.00488 KA relative to UGCAUGU
9,B9,0.00332 KA relative to UGCAUGU
10,B10,0.00743 KA relative to UGCAUGU
11,B11,0.0118 KA relative to UGCAUGU
12,B12,0.0144 KA relative to UGCAUGU
13,B13,0.00341 KA relative to UGCAUGU
14,B14,0.00294 KA relative to UGCAUGU
15,B15,0.00475 KA relative to UGCAUGU
16,B16,0.0145 KA relative to UGCAUGU

row,Binder,binding signal
1,B17,0.0132 KA relative to UGCAUGU
2,B18,0.0006 KA relative to UGCAUGU
3,B19,0.0129 KA relative to UGCAUGU
4,B20,0.0175 KA relative to UGCAUGU
5,B21,0.00547 KA relative to UGCAUGU
6,B22,0.00207 KA relative to UGCAUGU
7,B23,0.0171 KA relative to UGCAUGU
8,B24,0.012 KA relative to UGCAUGU
9,B25,0.00122 KA relative to UGCAUGU
10,B26,0.0252 KA relative to UGCAUGU
11,B27,0.0136 KA relative to UGCAUGU
12,B28,0.00912 KA relative to UGCAUGU
13,B29,0.00453 KA relative to UGCAUGU
14,B30,0.0111 KA relative to UGCAUGU
15,B31,0.00216 KA relative to UGCAUGU
